# “And” between values parts separate entries of the source, which are not always exact repeats. Equal entries are not always repeated. Out of some 310,000 compounds screened, about 11,000 (3.5%) were called active. Inconclusive means that the source gave no clear call. Such entries were picked first, then a sample of the others. Calls follow the shape of the dose curve; as a rule, active = well fitted inhibition curve with a large enough effect; inconclusive = small, poorly fitted or top-dose-only effect, or effect the other way; inactive = flat fitted curve, though single readings scatter. A potency beside an inconclusive call is a rough fit, not a confirmed value.
# Test: VP16 counterscreen qHTS for inhibitors of ROR gamma transcriptional activity;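 also: Gal4-VP16 expression switched on by copper sulfate through the metallothionein promoter; nearly all actives have a fitted effect of over 50% in size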
# Settings: Drosophila S2 Gal4-VP16 UAS-luciferase, luminescence, 20 h; activity, negative = inhibition: at 53.6 µM (top of the series)
# % is scaled to controls: 0 for no effect and ±100 for the full control effect; potency is read from the fitted curve at half-maximal effect; tags tell the direction and shape of the fitted curve.
SMILES,Potency,"activity, negative = inhibition"
COc1cc(/C=C(\C#N)c2ccccn2)ccc1OCC(=O)Nc1ccc(Br)cc1,"inconclusive: 35.5 µM [inhibitor, single point]",
O=C(NNC(=O)c1ccccc1O)c1ccc(Cl)cc1,"inconclusive: 35.5 µM [inhibitor, single point]",
C/C(=N\NC(=O)C1COc2ccccc2O1)c1ccc(Cl)s1 (centres undefined),active: 17.8 µM,
Cc1cc(C)c2[nH]c(=S)cc(C)c2c1,"inconclusive: 35.5 µM [inhibitor, single point]",
C[C@H](NC(=O)c1cc2cc(Cl)ccc2n1C)C(=O)N[C@@H](Cc1ccccc1)C(=O)O,,inactive: -3%
COc1ccc(NC(=S)N(Cc2ccc(N(C)C)cc2)Cc2ccco2)cc1,active: 20 µM,
NC(=S)NN=C1c2cc(OCCN3CCOCC3)ccc2-c2ccc(OCCN3CCOCC3)cc21,active: 3.16 µM,
Cc1ccc([N+](=O)[O-])cc1NC(=S)NC(=O)c1ccco1,,inactive: -2.6%
CC(=O)N1CCc2cc(S(=O)(=O)CCC(=O)N3CCN(c4cc(C)ccc4C)CC3)ccc21,,inactive: -13.9%
CC1(C)Oc2ccc(NC(=O)C3COc4ccccc4O3)cc2O1 (centres undefined),"inconclusive: 35.5 µM [inhibitor, single point]",
CCC1(CC)Cc2ccccc2C(=C(C#N)C#N)N1,,inactive: 22.3%
COc1cc([C@H]2c3[nH]c4ccccc4c3C[C@H]3C(=O)N4[C@@H](c5cc(OC)c(OC)c(OC)c5)c5[nH]c6ccccc6c5C[C@H]4C(=O)N23)cc(OC)c1OC,active: 10 µM,
Cc1ccc(CSCC(=O)N/N=C/c2cccc(OC3CSC3)c2)cc1,,inactive: -8.92%
Cc1ccsc1C1Nc2ccccc2-c2nc3ccccc3n21 (centres undefined),,inactive: -25.8%
CC(NCC(O)c1ccc([N+](=O)[O-])cc1)C12CC3CC(CC(C3)C1)C2 (centres undefined),"inconclusive: 35.5 µM [inhibitor, single point]",
Cc1ccc(NC(=O)C2C3CC4OC(=O)C2C4C3)cc1Cl (centres undefined),,inactive: 5.66%
O=S(=O)(Nc1ccc(Cl)cc1)c1ccc(N2CCOCC2)c(NC(=S)NC2CC2)c1,,inactive: 0.36%
C=CCNC(=S)NNC(=O)c1ccccc1OCC,,inactive: -6.83%
Nc1nonc1-n1nnc(C(=O)N/N=C/c2cc(Br)cs2)c1-c1ccccc1,active: 5.01 µM,
C=C(CO)C1Cc2c(ccc3c2OC2COc4cc(OC)c(OC)cc4C2C3=O)O1 (centres undefined),"inconclusive: 0.891 µM [inhibitor, full curve, poor fit]",
CC1CCCC(C)N1/N=C/c1cc(Br)c(O)c(Br)c1 (centres undefined),"inconclusive: 35.5 µM [inhibitor, single point]",
Cc1ccccc1OCCn1cc(C=O)c2ccccc21,"inconclusive: 35.5 µM [inhibitor, single point]",
Cc1cccc(C)c1NC(=O)N1CCC(C(=O)c2ccc(F)cc2)CC1,,inactive: -15.5%
C=CCc1ccc(O)c(-c2cc(CC=C)ccc2O)c1,"inconclusive: 28.2 µM [inhibitor, single point] and inconclusive: 17.8 µM [inhibitor, partial curve]",
O=C(NCC1CCCCC1)c1cc2ccccc2cc1O,"inconclusive: 35.5 µM [inhibitor, single point]",

SMILES,Potency,"activity, negative = inhibition"
CC(=O)c1cnc2cc(-c3ccc(C)cc3)nn2c1C,"inconclusive: 0.631 µM [activator, single point]",
COC(=O)C(C)N1C(=O)S/C(=C/c2cc(C)n(C(C)C)c2C)C1=O (centres undefined),"inconclusive: 17.8 µM [inhibitor, partial curve, poor fit]",
CN(C(=O)CC(NC(=O)c1ccccc1Cl)c1ccccc1)c1ccccc1 (centres undefined),,inactive: 10.4%
COc1ccc(Nc2nc(-c3c(C)nc4ncccn34)cs2)cc1,"inconclusive: 31.6 µM [inhibitor, single point]",
S=C(NCc1ccco1)Nc1ccc(Cl)cn1,active: 2.82 µM,
COc1ccc(C(=O)COc2ccc(C)cc2NC(C)=O)cc1,,inactive: -13%
O=C1CCCCCCC1Sc1ccccc1[N+](=O)[O-] (centres undefined),"inconclusive: 20 µM [inhibitor, partial curve]",
CC(c1ccc(F)cc1)n1c(-c2ccc3ccccc3n2)n[nH]c1=S (centres undefined),active: 3.55 µM,
N#Cc1c(-c2ccc(Cl)cc2)ccn2nc(C3CCCCC3)nc12,"inconclusive: 35.5 µM [inhibitor, single point]",
CCOC(=O)c1c(N)sc(C(=O)N(C)C)c1CN1CCOCC1,"inconclusive: 22.4 µM [inhibitor, single point]",
O=C(CS(=O)(=O)c1ccccc1)c1ccc2c(c1)OCCO2,"inconclusive: 2 µM [inhibitor, single point]",
O=C1NC(=O)c2cc(Nc3ccc(F)cc3)c(Nc3ccc(F)cc3)cc21,"inconclusive: 25.1 µM [inhibitor, single point]",
COc1ccc(-n2c(=S)[nH]c3cc(C(=O)NCc4ccccc4OC)ccc3c2=O)c(OC)c1,active: 14.1 µM,
COC(=O)[C@@H](N)CS,"inconclusive: 0.708 µM [inhibitor, full curve]",
Fc1cccc(NC(=S)N2CCCC2)c1,"inconclusive: 5.62 µM [activator, single point]",
Cc1ccc(Cn2c(N/N=C/c3ccncc3)nc3c2c(=O)n(C)c(=O)n3C)cc1,active: 10 µM,
CC(=O)c1cccc(NC(=O)c2ccc(-c3ccccc3[N+](=O)[O-])o2)c1,active: 7.08 µM,
O=C(NC(=S)NC1CCSC1=O)c1cccs1 (centres undefined),"inconclusive: 35.5 µM [inhibitor, single point]",
Cc1cc(C)c(/C=N/NC(=O)c2nnn(-c3nonc3N)c2COc2ccc(F)cc2)c(C)c1,"inconclusive: 35.5 µM [inhibitor, single point]",
COc1cccc(CN(C)C(=O)/C=C/c2ccc(S(=O)(=O)N3CCCCCC3)cc2)c1,,inactive: -10.9%
Cc1nc(SCC(=O)c2ccc(F)cc2)n[nH]1,"inconclusive: 35.5 µM [inhibitor, single point]",
CC(C)C(NC(=O)c1ccccc1)C(=O)NCCc1ccccc1 (centres undefined),,inactive: -1.07%
Cc1ccc(NC(=O)c2ccccc2SCC(=O)N2CCCC2)cc1S(=O)(=O)N(C)C,,inactive: 1.17%
CCOc1ccc(NC(=S)Nc2cccc3ccccc23)cc1,active: 8.91 µM,
Cc1cc(C)cc(NC2=C(N)C(=O)c3ccccc3C2=O)c1,,inactive: -5.65%

SMILES,Potency,"activity, negative = inhibition"
CCOC(=O)N1CCN(C(=O)c2ccc3c(=O)n(Cc4ccc(Cl)cc4)c(=S)[nH]c3c2)CC1,"inconclusive: 35.5 µM [inhibitor, single point]",
COc1ccc(S(=O)(=O)N2CCCC2C(=O)NCC(=O)Nc2cccc(Cl)c2C)cc1 (centres undefined),"inconclusive: 35.5 µM [inhibitor, single point]",
COc1ccc2cc(C(=O)NCc3ccccc3)c(=Nc3ccc(C(=O)O)cc3)oc2c1,"inconclusive: 5.01 µM [inhibitor, single point]",
NNc1nc(N)c2c(n1)-c1ccccc1CC21CCCC1,"inconclusive: 35.5 µM [inhibitor, single point]",
O=C(NC(=S)NCc1cccnc1)c1cc(Br)ccc1Cl,"inconclusive: 35.5 µM [inhibitor, single point]",
COCCn1c(SCCCC(=O)c2ccc(Br)cc2)nnc1-c1ccncc1,"inconclusive: 12.6 µM [inhibitor, partial curve]",
N#C/C(=C\c1ccc[nH]1)C(=O)NC1CC1,,inactive: 10.1%
COc1ccc(NC(=O)CSc2nnc(Cc3cccn3C)n2-c2ccc(F)cc2)cc1OC,"inconclusive: 35.5 µM [inhibitor, single point]",
COc1cc(CNC(C)c2ccccc2)cc(Cl)c1OCC(=O)Nc1ccccc1 (centres undefined),"inconclusive: 14.1 µM [inhibitor, single point]",
COc1cnc(-c2ccccn2)nc1Oc1ccc(Cl)cc1,active: 8.91 µM,
CC1CN(C(=O)c2cc(S(=O)(=O)N(C)c3ccc(F)cc3)ccc2Cl)CC(C)O1 (centres undefined),,inactive: -6.74%
COc1cc(/C=C2\C(=N)N3N=C(C)SC3=NC2=O)cc(Cl)c1OCCOc1ccc(NC(C)=O)cc1,,inactive: 9.03%
COc1cccc(CNC(=O)c2ccc(CS(=O)c3ccccc3)o2)c1 (centres undefined),,inactive: -5.52%
O=C(NCc1ccccc1Cl)C1CCC(=O)N(C2CC2)C1 (centres undefined),"inconclusive: 31.6 µM [inhibitor, single point]",
CC(=O)[C@@H]1[C@@H]2C(=O)N(Cc3ccccc3)C(=O)[C@@H]2C2c3ccccc3C=CN21 (some centres undefined),,inactive: -2.42%
O=C(c1coc2ccccc2c1=O)N1CCN(c2cccc(C(F)(F)F)c2)CC1,"inconclusive: 22.4 µM [inhibitor, single point]",
Cc1cc(S(=O)(=O)NCc2ccccc2)ccc1OCC(=O)Nc1cccc([N+](=O)[O-])c1,active: 11.2 µM,
O=C(CCN1C(=O)S/C(=C/c2ccc(Cl)cc2)C1=O)N1CCOCC1,"inconclusive: 5.62 µM [activator, single point]",
Cc1ccc(-c2nc(NCCN(C)C)c3ccccc3n2)cc1,"inconclusive: 0.562 µM [activator, single point]",
CCC(C)NC(=S)N(CCc1ccccc1)Cc1cc2cc(OC)c(OC)cc2[nH]c1=O (centres undefined),"inconclusive: 5.62 µM [activator, single point]",
CCn1cc(C(=O)O)c(=O)c2cc(F)c(N3CCN(S(=O)(=O)c4ccc(NC(=O)OC)cc4)CC3)cc21,,inactive: -6.45%
COc1ccc2nc(NC3=NC(C(=O)Nc4ccc(C)cc4)CC(=O)N3)nc(C)c2c1 (centres undefined),"inconclusive: 5.01 µM [activator, single point]",
CCc1cc(-c2n[nH]c(=S)n2CC(C)C)cs1,active: 11.2 µM,
CCOC(=O)c1ccc(N2CN(CCc3ccccc3)CNC2=S)cc1,"inconclusive: 35.5 µM [inhibitor, single point]",
